Test results from paper PMC4336329 (PLoS ONE, 2015).
Screen size: about 310,000 compounds; about 14,000 (4.5%) showed an effect of 50% or more. Effects have a minus sign here. The list shows a part of the results.

Target: human ether-à-go-go-related gene (hERG) potassium channel (human, UniProt Q12809)
Test: primary screen, population patch clamp on CHO cells stably expressing hERG
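Further: peak tail current of the secondary pulse compared with the same well before compound.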

Sequence of human ether-à-go-go-related gene (hERG) potassium channel (Q12809 whole entry, looked up): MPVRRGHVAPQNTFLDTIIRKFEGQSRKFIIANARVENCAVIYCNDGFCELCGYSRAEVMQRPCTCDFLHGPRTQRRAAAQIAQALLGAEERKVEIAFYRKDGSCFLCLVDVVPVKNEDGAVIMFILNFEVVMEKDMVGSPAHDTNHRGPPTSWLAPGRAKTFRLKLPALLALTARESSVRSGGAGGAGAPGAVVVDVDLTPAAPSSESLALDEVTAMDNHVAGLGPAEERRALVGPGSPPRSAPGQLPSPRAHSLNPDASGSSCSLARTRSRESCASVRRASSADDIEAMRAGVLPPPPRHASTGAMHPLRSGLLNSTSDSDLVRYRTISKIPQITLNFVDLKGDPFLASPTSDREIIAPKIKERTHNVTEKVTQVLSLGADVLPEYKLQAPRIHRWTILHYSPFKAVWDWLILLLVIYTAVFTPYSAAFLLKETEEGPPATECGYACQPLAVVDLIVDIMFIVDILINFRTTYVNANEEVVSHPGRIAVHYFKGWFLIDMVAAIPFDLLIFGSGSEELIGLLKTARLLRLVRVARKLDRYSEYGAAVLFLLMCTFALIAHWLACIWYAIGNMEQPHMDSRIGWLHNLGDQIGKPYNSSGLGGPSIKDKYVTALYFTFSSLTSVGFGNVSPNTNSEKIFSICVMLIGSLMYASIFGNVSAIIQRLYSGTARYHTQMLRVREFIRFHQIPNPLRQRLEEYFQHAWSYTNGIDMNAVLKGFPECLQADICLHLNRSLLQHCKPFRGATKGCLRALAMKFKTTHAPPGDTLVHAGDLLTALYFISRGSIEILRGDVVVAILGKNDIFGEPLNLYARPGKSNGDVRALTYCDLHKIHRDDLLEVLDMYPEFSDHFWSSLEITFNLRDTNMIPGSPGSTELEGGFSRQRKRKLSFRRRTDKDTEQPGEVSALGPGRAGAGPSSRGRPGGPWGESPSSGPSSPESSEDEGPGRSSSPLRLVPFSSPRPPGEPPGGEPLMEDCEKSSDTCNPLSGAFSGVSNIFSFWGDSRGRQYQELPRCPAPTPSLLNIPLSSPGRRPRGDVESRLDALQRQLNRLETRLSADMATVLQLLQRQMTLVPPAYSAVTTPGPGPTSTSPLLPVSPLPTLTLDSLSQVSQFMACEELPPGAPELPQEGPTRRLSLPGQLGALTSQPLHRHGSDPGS

Compound | hERG current change (%, negative = inhibition) at 10uM
CCN(CC)S(=O)(=O)c1cc(C(=O)Nc2cc(C)on2)c(Cl)cc1Cl | 12.3%
CCN(CC)CCNC(=O)CNC(=O)c1nn(-c2ccc(OC)c(OC)c2)c(=O)c2ccccc12 | 11%
Cc1ccc(NC(=O)C2CCN(S(=O)(=O)c3cccc4nonc34)CC2)nc1 | 5.58%
COc1cc(C(=O)NCc2cccnc2)ccc1OCC(=O)Nc1cccc(C(F)(F)F)c1 | 3.13%
N#C/C(=C\c1cc([N+](=O)[O-])c(N2CCOCC2)cc1N1CCOCC1)c1nc2ccccc2[nH]1 | -45.5%
O=C(c1cc([N+](=O)[O-])ccc1Cl)N1CCN(c2ccccn2)CC1 | -18.8%
Cn1cc(S(=O)(=O)N2CCc3ccccc3C2)c(=O)n(C)c1=O | -5.18%
COc1ccc2c(c1OC)C(=O)N(c1nccs1)C2 | 2.64%
COc1ccc(C2/C(=C(/O)c3ccc4c(c3)CC(C)O4)C(=O)C(=O)N2CCCN2CCOCC2)cc1OC (stereo not drawn) | 1.5%
COc1ccccc1C(=O)COC(=O)c1nc(Cl)ccc1Cl | -0.91%
COc1cccc(NC(=O)C2CCN(c3cnccn3)CC2)c1 | 3.59%
O=C(Nc1nc(-c2ccccc2)c(-c2ccccc2)s1)c1ccc(S(=O)(=O)N2CCCC2)cc1 | -1.56%
CN(c1ccccc1)S(=O)(=O)c1nnc(NC(=O)c2ccco2)s1 | 17.6%
CCOC(=O)C1CCCN(C(=O)c2sc3nc(-c4ccccc4)cn3c2C)C1 (stereo not drawn) | -59.8%
COc1ccc(/C=N/n2c(C)nc3ccccc3c2=O)cc1 | 10.1%
O=C(Nc1cccc(S(=O)(=O)NC2=NCCC2)c1)C1CC(=O)N(c2ccc3c(c2)OCCO3)C1 (stereo not drawn) | 23.2%
COc1cccc(-c2noc(-c3ccoc3C)n2)c1 | 35.8%
O=C(Nc1nc(-c2ccccc2)c(C(=O)c2ccccc2)s1)c1ccc(S(=O)(=O)N2CCCCC2)cc1 | 1.3%
COc1ccc(C2=NOC(Cn3nc(C(=O)NCc4ccc(OC(F)(F)F)cc4)cc3-c3ccccc3)C2)cc1 (stereo not drawn) | -3.95%
O=C(CCNS(=O)(=O)c1cccs1)NCc1ccco1 | 1.96%
NC(=O)c1cc([N+](=O)[O-])c(Cl)cc1NCc1ccncc1 | -31.9%

Compound | hERG current change (%, negative = inhibition) at 10uM
CC(NCCC1(Cc2ccccc2Cl)CCOC(C)(C)C1)c1cccs1 (stereo not drawn) | -23.3%
O=C(Nc1ccc(Cc2nc3ccccc3s2)cc1)c1ccncc1 | -25.1%
CCNC(=O)Nc1cc(S(=O)(=O)Nc2ccc(OC)cc2)ccc1N1CCOCC1 | -9.8%
CCn1c(SCC(=O)N/N=C/C(C)=C\c2ccco2)nnc1-c1ccccc1 | -39%
CCC(C)NS(=O)(=O)c1ccc(NC(=O)c2c(-c3ccccc3)noc2C)cc1 (stereo not drawn) | 8.46%
CCCn1nc(C(=O)Nc2cc(C(=O)OC)ccc2C)c2ccccc2c1=O | -4.93%
CCOc1ccc(-c2csc3ncn(-c4ccc(OC)cc4)c(=O)c23)cc1 | 14.9%
O=[N+]([O-])c1ccc(/C=C/c2ccc3cccc([N+](=O)[O-])c3n2)cc1 | 17.4%
CCN(CC)CCN(C(=O)c1ccc(S(=O)(=O)N(CC)c2ccccc2)cc1)c1nc2c(OC)ccc(OC)c2s1.Cl | -27%
CCCc1cc(=O)oc2cc(OCC(=O)Nc3cc(C)on3)ccc12 | 5.46%
CCCCCCCCCCS(=O)(=O)N/N=C/c1ccc(O)cc1 | 21.2%
CCc1c(C)nc2ncnn2c1N1CCC(C(=O)Nc2ccc(C)cc2)CC1 | -55.9%
CCc1c(C)c2ccc(O)c(CN(C)C)c2oc1=O | 5.38%
Cc1cc(=O)c2c(C)ccc(C)c2[nH]1 | 17.1%
CN(Cc1ccccc1)c1nc2c(c(=O)[nH]c(=O)n2C)n1CCCSc1ncccn1 | -25.8%
CC(OC(=O)c1ccco1)C(=O)Nc1ccc(Cl)cn1 (stereo not drawn) | -11.9%
CC(C)(Oc1ccc(Cl)cc1)C(=O)Nc1ncccn1 | -3%
Cc1n[nH]c(C)c1S(=O)(=O)N1CCCC(C(=O)Nc2nccs2)C1 (stereo not drawn) | -1.97%
CCOc1ccc(N(CC(=O)NC2CCCCC2)S(=O)(=O)c2ccc(C)cc2)cc1 | 8.67%
CC(C)C1N(S(=O)(=O)c2ccccc2)CCN1S(=O)(=O)c1ccccc1 | -21.2%
O=C(COC(=O)CSc1ccccc1)NNC(=O)c1ccc([N+](=O)[O-])cc1 | 2.6%
